Data on 153 variants can be found in a collection of fitness landscapes (doi:10.1126/science.1257360).

To fix the notation:
B1: PhoQ; a variant is named by its letters at X, in order, P23837 (parent)
chain: MKKLLRLFFPLSLRVRFLLATAAVVLVLSLAYGMVALIGYSVSFDKTTFRLLRGESNLFYTLAKWENNKLHVELPENIDKQSPTMTLIYDENGQLLWAQRDVPWLMKMIQPDWLKSNGFHEIEADVNDTSLLLSGDHSIQQQLQEVREDDDDAEMTHSVAVNVYPATSRMPKLTIVVVDTIPVELKSSYMVWSWFIYVLSANLLLVIPLLWVAAWWSLRPIEALAKEVRELEEHNRELLNPATTRELTSLVRNLNRLLKSERERYDKYRTTLTDLTHSLKTPLXXLQXXLRSLRSEKMSVSDAEPVMLEQISRISQQIGYYLHRASMRGGTLLSRELHPVAPLLDNLTSALNKVYQRKGVNISLDISPEISFVGEQNDFVEVMGNVLDNACKYCLEFVEISARQTDEHLYIVVEDDGPGIPLSKREVIFDRGQRVDTLRPGQGVGLAVAREITEQYEGKIVAGESMLGGARMEVIFGRQHSAPKDE

Some of the results follow.

The variants in the experiment derive from B1. In words: enrichment ratio after two sorts for PhoP signalling (ratio (wild type AVST 3.29)); higher = more functional. The conditions noted are these: with PhoP (E. coli).
For FYMD, the enrichment ratio was not above 0.25.

Turning to ANFD, the enrichment ratio is not above 0.25.

With MYWR, the enrichment ratio was not above 0.25. For the variant IMPF, the enrichment ratio is not above 0.25. The result for VQQS reads not above 0.25. The figure for SKYS is not above 0.25; for SYEI it is not above 0.25; for GNLK it is not above 0.25.

On to TPKG, for which the enrichment ratio is not above 0.25.

SQMY: the enrichment ratio is 10.7. The figure for ILGV is not above 0.25; for DVSW it is not above 0.25. As for AGCY, the enrichment ratio came to 3.39. KIRL: the enrichment ratio was not above 0.25. The result for QECT reads 6.99. The figure for WCMV is not above 0.25; for HSCI it is not above 0.25; for WSWH it is not above 0.25. Take PKKC: the enrichment ratio was not above 0.25. With FMGE, the enrichment ratio is not above 0.25. In the case of EMAP, the enrichment ratio was not above 0.25. In the case of GDMG, the enrichment ratio was not above 0.25. The result for DNHN reads not above 0.25; that for QKSG, not above 0.25. With HPSL, the enrichment ratio is not above 0.25. Regarding KAHF, the enrichment ratio was not above 0.25. The result for SNWQ reads not above 0.25; that for MVII, not above 0.25. For WTRS, the enrichment ratio is not above 0.25. The result for SNME reads 14.4; that for NPLV, not above 0.25.

Take HCSK: the enrichment ratio is not above 0.25.

Take SDVK: the enrichment ratio was not above 0.25.

Take NVFY: the enrichment ratio was not above 0.25. Turning to EGDV, the enrichment ratio was not above 0.25.

TNSK: the enrichment ratio was not above 0.25. With LESA, the enrichment ratio is not above 0.25. Take RYSV: the enrichment ratio was not above 0.25. Consider TFLQ, for which the enrichment ratio was not above 0.25. On to FDHW, for which the enrichment ratio was not above 0.25. Take NTGF: the enrichment ratio was not above 0.25. Take QRTL: the enrichment ratio was not above 0.25. As to IPFR, the enrichment ratio was not above 0.25. ECAQ: the enrichment ratio was not above 0.25.

For the variant LKAL, the enrichment ratio was not above 0.25. On to MWPS, for which the enrichment ratio was not above 0.25. For LTHG, the enrichment ratio was 0.944.

In the case of HWMN, the enrichment ratio was not above 0.25.

For the variant DKVH, the enrichment ratio is not above 0.25.

With NTGD, the enrichment ratio was not above 0.25. For the variant YMCL, the enrichment ratio is 0.261. As to SWLY, the enrichment ratio is not above 0.25. Regarding RKGD, the enrichment ratio is not above 0.25. For QGHG, the enrichment ratio is not above 0.25.

Turning to GASH, the enrichment ratio is not above 0.25. For the variant HKIV, the enrichment ratio was not above 0.25.

For the variant RYQS, the enrichment ratio is not above 0.25. The figure for DAAL is not above 0.25; for IVPI it is not above 0.25; for FHPH it is 0.683. Take AHQR: the enrichment ratio was not above 0.25.

For the variant RKCH, the enrichment ratio was not above 0.25. For the variant AARC, the enrichment ratio was not above 0.25.

Regarding EESS, the enrichment ratio is not above 0.25. Turning to VSHI, the enrichment ratio came to 0.387.

As to HKGC, the enrichment ratio was not above 0.25. The result for IVDG reads not above 0.25; that for WEGH, not above 0.25. With GEAN, the enrichment ratio was not above 0.25. As for ATTP, the enrichment ratio was not above 0.25. For the variant RWVN, the enrichment ratio was 1.59. IATN: the enrichment ratio is not above 0.25. On to EELM, for which the enrichment ratio is not above 0.25. As to QCMG, the enrichment ratio was not above 0.25. Consider ELEK, for which the enrichment ratio is not above 0.25. As for AGPR, the enrichment ratio was not above 0.25. The figure for ISCC is not above 0.25.

Turning to QYDR, the enrichment ratio is not above 0.25.

Take WNYF: the enrichment ratio was not above 0.25.

As to FMID, the enrichment ratio is not above 0.25. As for IDDN, the enrichment ratio is not above 0.25. MVNR: the enrichment ratio is not above 0.25. On to IHRI, for which the enrichment ratio is not above 0.25. QWGE: the enrichment ratio is not above 0.25. The figure for FTEM is not above 0.25. With SSAT, the enrichment ratio worked out at 8.03. SSKW: the enrichment ratio was not above 0.25.

As for KNRE, the enrichment ratio was not above 0.25.

PKLY: the enrichment ratio is not above 0.25. The figure for ARRL is not above 0.25.

LRVD: the enrichment ratio is not above 0.25.

Regarding ACAR, the enrichment ratio came out at 0.901. Consider LPVV, for which the enrichment ratio was not above 0.25. For the variant FFVF, the enrichment ratio was not above 0.25.

Take FDPE: the enrichment ratio is not above 0.25.

Regarding IKNK, the enrichment ratio was not above 0.25.

Regarding QDKN, the enrichment ratio is not above 0.25.

Turning to IQTW, the enrichment ratio was not above 0.25. On to GIGM, for which the enrichment ratio came out at 36.1. As for GNTF, the enrichment ratio is not above 0.25. Take LEPH: the enrichment ratio was not above 0.25. The figure for MMCL is 4.1; for TPQL it is 0.944. HKNR: the enrichment ratio was not above 0.25. The result for KANC reads not above 0.25. Consider PWRG, for which the enrichment ratio is not above 0.25. On to LLKQ, for which the enrichment ratio was not above 0.25. For the variant PNSM, the enrichment ratio was not above 0.25. As to HRAW, the enrichment ratio was not above 0.25. Take IVYQ: the enrichment ratio is not above 0.25. With RYNS, the enrichment ratio is not above 0.25. For WYRS, the enrichment ratio is not above 0.25.

Turning to REWL, the enrichment ratio is 1.09. In the case of CYSF, the enrichment ratio is not above 0.25. Turning to VDRQ, the enrichment ratio was not above 0.25.

On to KEFM, for which the enrichment ratio is not above 0.25. The result for SIKA reads not above 0.25; that for KDTK, not above 0.25. The result for GMIC reads not above 0.25; that for GDMP, not above 0.25; that for HQNA, not above 0.25.

On to RSAI, for which the enrichment ratio is not above 0.25.

Take GPSE: the enrichment ratio was not above 0.25. The result for TFNR reads not above 0.25; that for IGPM, not above 0.25; that for TKPK, not above 0.25.

Turning to GENM, the enrichment ratio was not above 0.25.

IDCV: the enrichment ratio is not above 0.25. Consider IFKR, for which the enrichment ratio is not above 0.25. With RLHP, the enrichment ratio was not above 0.25. For PTGV, the enrichment ratio was not above 0.25. Regarding IYCP, the enrichment ratio was not above 0.25. Take VHKN: the enrichment ratio was not above 0.25.

On to DTIM, for which the enrichment ratio was not above 0.25. On to SVDI, for which the enrichment ratio was not above 0.25. In the case of NMDV, the enrichment ratio is not above 0.25. Consider QQNQ, for which the enrichment ratio is not above 0.25. For TRMC, the enrichment ratio came out at 2.53. The result for MPMA reads not above 0.25; that for NWAP, not above 0.25; that for RRLN, not above 0.25.

For the variant NLAA, the enrichment ratio was not above 0.25. With NYNL, the enrichment ratio was not above 0.25. The figure for HIRI is not above 0.25. DLEE: the enrichment ratio is not above 0.25. The figure for QHSM is 2.52; for LRIF it is not above 0.25; for GQMC it is not above 0.25. As to KDGP, the enrichment ratio was not above 0.25.

Turning to GIPA, the enrichment ratio was not above 0.25. With WVMI, the enrichment ratio was not above 0.25.

Turning to YIQP, the enrichment ratio was not above 0.25. As for PDDN, the enrichment ratio is not above 0.25.
